# The other results are listed elsewhere or left out.
# B1: Siglec-E (Mus musculus), Q91Y57 (protein)
# chain: MLLLLLLLLLWGIKGVEGQNPQEVFTLNVERKVVVQEGLCVLVPCNFSYLKKRLTDWTDSDPVHGFWYREGTDRRKDSIVATNNPIRKAVKETRNRFFLLGDPWRNDCSLNIREIRKKDAGLYFFRLERGKTKYNYMWDKMTLVVTALTNTPQILLPETLEAGHPSNLTCSVPWDCGWTAPPIFSWTGTSVSFLSTNTTGSSVLTITPQPQDHGTNLTCQVTLPGTNVSTRMTTRLNVSYAPKNLTVTIYQGADSVSTILKNGSSLPISEGQSLRLICSTDSYPPANLSWSWDNLTLCPSKLSKPGLLELFPVHLKHGGVYTCQAQHALGSQHISLSLSPQSSATLSEMMMGTFVGSGVTALLFLSVCILLLAVRSYRRKPARPAVVAPHPDALKVSVSQNPLVESQADDSSEPLPSILEAAPSSTEEEIHYATLSFHEMKPMNLWGQQDTTTEYSEIKFPQRTAWP
# Assays:
# Assay in all cases: glycan array binding signal (z-score within array); higher = stronger binding
# Settings in all cases: glycan notation: IUPAC condensed, linker removed
# [1] = molecular target: Man(a1-3)[Man(a1-6)]Man(a1-6)[Man(a1-2)Man(a1-3)]Man(b1-4)GlcNAc(b1-4)GlcNAc
# Outline: (§1)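 Arrays were curated from the Consortium for Functional Glycomics database, 3228 in total, and kept only where the protein sequence was available. Binding is expressed as a within-array Z-score. This score was averaged across arrays of the same protein sequence at different concentrations or buffers and across linkers, and negative values can be read as non-binding.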
# [2] = molecular target: Man(a1-3)[Man(a1-6)]Man(a1-6)[Man(a1-3)]Man
# Outline: as §1
# [3] = molecular target: Man(a1-3)[Man(a1-6)]Man(a1-6)[Man(a1-3)]Man(b1-4)GlcNAc(b1-4)GlcNAc
# Outline: as §1
# [4] = molecular target: Man(a1-3)[Man(a1-6)]Man(b1-4)GlcNAc(b1-4)GlcNAc
# Outline: as §1
# [5] = molecular target: Man(a1-3)[Man(a1-6)]Man(b1-4)GlcNAc(b1-4)[Fuc(a1-6)]GlcNAc
# Outline: as §1
# Man(a1-6)Man = molecular target: Man(a1-6)Man
# Outline: as §1
# Man(b1-4)GlcNAc = molecular target: Man(b1-4)GlcNAc
# Outline: as §1
# MurNAc(b1-4)GlcNAc = molecular target: MurNAc(b1-4)GlcNAc
# Outline: as §1
# Neu5Ac(a2-3)Gal = molecular target: Neu5Ac(a2-3)Gal
# Outline: as §1
# [6] = molecular target: Neu5Ac(a2-3)Gal(b1-3)GalNAc
# Outline: as §1
# [7] = molecular target: Neu5Ac(a2-3)Gal(b1-3)GalNAc(b1-3)Gal(a1-4)Gal(b1-4)Glc
# Outline: as §1
# [8] = molecular target: Neu5Ac(a2-3)Gal(b1-3)GalNAc(b1-4)Gal(b1-4)Glc
# Outline: as §1
# [9] = molecular target: Neu5Ac(a2-3)Gal(b1-3)GalNAc(b1-4)[Neu5Ac(a2-3)]Gal(b1-4)Glc
# Outline: as §1
# [10] = molecular target: Neu5Ac(a2-3)Gal(b1-3)GalNAc(b1-4)[Neu5Ac(a2-8)Neu5Ac(a2-3)]Gal(b1-4)Glc
# Outline: as §1
# [11] = molecular target: Neu5Ac(a2-3)Gal(b1-3)GalNAc6S
# Outline: as §1
# [12] = molecular target: Neu5Ac(a2-3)Gal(b1-3)GlcNAc
# Outline: as §1
# [13] = molecular target: Neu5Ac(a2-3)Gal(b1-3)GlcNAc(b1-2)Man
# Outline: as §1
# [14] = molecular target: Neu5Ac(a2-3)Gal(b1-3)GlcNAc(b1-2)Man(a1-3)[GlcNAc(b1-4)][Neu5Ac(a2-3)Gal(b1-3)GlcNAc(b1-2)Man(a1-6)]Man(b1-4)GlcNAc(b1-4)GlcNAc
# Outline: as §1
# [15] = molecular target: Neu5Ac(a2-3)Gal(b1-3)GlcNAc(b1-2)Man(a1-3)[Neu5Ac(a2-3)Gal(b1-3)GlcNAc(b1-2)Man(a1-6)]Man(b1-4)GlcNAc(b1-4)GlcNAc
# Outline: as §1
# [16] = molecular target: Neu5Ac(a2-3)Gal(b1-3)GlcNAc(b1-2)[Neu5Ac(a2-3)Gal(b1-3)GlcNAc(b1-4)]Man(a1-6)[Neu5Ac(a2-3)Gal(b1-3)GlcNAc(b1-2)Man(a1-3)]Man(b1-4)GlcNAc(b1-4)GlcNAc
# Outline: as §1
# [17] = molecular target: Neu5Ac(a2-3)Gal(b1-3)GlcNAc(b1-3)Gal(b1-3)GlcNAc
# Outline: as §1
# [18] = molecular target: Neu5Ac(a2-3)Gal(b1-3)GlcNAc(b1-3)Gal(b1-4)GlcNAc
# Outline: as §1
# [19] = molecular target: Neu5Ac(a2-3)Gal(b1-3)GlcNAc(b1-3)GalNAc
# Outline: as §1
# [20] = molecular target: Neu5Ac(a2-3)Gal(b1-3)GlcNAc(b1-6)GalNAc
# Outline: as §1
# [21] = molecular target: Neu5Ac(a2-3)Gal(b1-3)GlcNAc6S
# Outline: as §1
# [22] = molecular target: Neu5Ac(a2-3)Gal(b1-3)[Fuc(a1-4)]GlcNAc
# Outline: as §1
# [23] = molecular target: Neu5Ac(a2-3)Gal(b1-3)[Fuc(a1-4)]GlcNAc(b1-3)Gal(b1-3)[Fuc(a1-4)]GlcNAc
# Outline: as §1
# [24] = molecular target: Neu5Ac(a2-3)Gal(b1-3)[Fuc(a1-4)]GlcNAc(b1-3)Gal(b1-4)[Fuc(a1-3)]GlcNAc
# Outline: as §1
# [25] = molecular target: Neu5Ac(a2-3)Gal(b1-3)[GlcNAc(b1-6)]GalNAc
# Outline: as §1
# [26] = molecular target: Neu5Ac(a2-3)Gal(b1-3)[Neu5Ac(a2-6)]GalNAc
# Outline: as §1
# [27] = molecular target: Neu5Ac(a2-3)Gal(b1-3)[Neu5Ac(a2-6)]GlcNAc(b1-3)[Fuc(a1-3)[Gal(b1-4)]GlcNAc(b1-6)]Gal(b1-4)Glc
# Outline: as §1
# [28] = molecular target: Neu5Ac(a2-3)Gal(b1-3)]Neu5Ac(a2-3)Gal(b1-4)]GlcNAc
# Outline: as §1
# Neu5Ac(a2-3)Gal(b1-4)Glc = molecular target: Neu5Ac(a2-3)Gal(b1-4)Glc
# Outline: as §1
# [29] = molecular target: Neu5Ac(a2-3)Gal(b1-4)GlcNAc
# Outline: as §1
# [30] = molecular target: Neu5Ac(a2-3)Gal(b1-4)GlcNAc(b1-2)Man
# Outline: as §1
# [31] = molecular target: Neu5Ac(a2-3)Gal(b1-4)GlcNAc(b1-2)Man(a1-3)[GlcNAc(b1-4)][Neu5Ac(a2-3)Gal(b1-4)GlcNAc(b1-2)Man(a1-6)]Man(b1-4)GlcNAc(b1-4)GlcNAc
# Outline: as §1
# [32] = molecular target: Neu5Ac(a2-3)Gal(b1-4)GlcNAc(b1-2)Man(a1-3)[Neu5Ac(a2-3)Gal(b1-4)GlcNAc(b1-2)Man(a1-6)]Man(b1-4)GlcNAc(b1-4)GlcNAc
# Outline: as §1
# [33] = molecular target: Neu5Ac(a2-3)Gal(b1-4)GlcNAc(b1-2)Man(a1-3)[Neu5Ac(a2-3)Gal(b1-4)GlcNAc(b1-2)Man(a1-6)]Man(b1-4)GlcNAc(b1-4)[Fuc(a1-6)]GlcNAc
# Outline: as §1
binder,measurement,setting,value
B1,glycan array binding signal (z-score),[1],-0.246
same,glycan array binding signal (z-score),[2],-0.31
same,glycan array binding signal (z-score),[3],0.047
same,glycan array binding signal (z-score),[4],-0.416
same,glycan array binding signal (z-score),[5],-0.179
same,glycan array binding signal (z-score),Man(a1-6)Man,0.619
same,glycan array binding signal (z-score),Man(b1-4)GlcNAc,-0.501
same,glycan array binding signal (z-score),MurNAc(b1-4)GlcNAc,-0.464
same,glycan array binding signal (z-score),Neu5Ac(a2-3)Gal,-0.19
same,glycan array binding signal (z-score),[6],2.27
same,glycan array binding signal (z-score),[7],-0.278
same,glycan array binding signal (z-score),[8],-0.112
same,glycan array binding signal (z-score),[9],-0.181
same,glycan array binding signal (z-score),[10],0.68
same,glycan array binding signal (z-score),[11],0.425
same,glycan array binding signal (z-score),[12],-0.503
same,glycan array binding signal (z-score),[13],0.009
same,glycan array binding signal (z-score),[14],-0.264
same,glycan array binding signal (z-score),[15],6.41
same,glycan array binding signal (z-score),[16],0.43
same,glycan array binding signal (z-score),[17],-0.603
same,glycan array binding signal (z-score),[18],-0.457
same,glycan array binding signal (z-score),[19],-0.226
same,glycan array binding signal (z-score),[20],-0.343
same,glycan array binding signal (z-score),[21],0.3
same,glycan array binding signal (z-score),[22],-0.348
same,glycan array binding signal (z-score),[23],-0.297
same,glycan array binding signal (z-score),[24],-0.475
same,glycan array binding signal (z-score),[25],-0.28
same,glycan array binding signal (z-score),[26],0.525
same,glycan array binding signal (z-score),[27],-0.564
same,glycan array binding signal (z-score),[28],-0.186
same,glycan array binding signal (z-score),Neu5Ac(a2-3)Gal(b1-4)Glc,3.95
same,glycan array binding signal (z-score),[29],-0.415
same,glycan array binding signal (z-score),[30],2.6
same,glycan array binding signal (z-score),[31],-0.302
same,glycan array binding signal (z-score),[32],-0.499
same,glycan array binding signal (z-score),[33],-0.371

# — the supplement of paper PMC8728848
